# Source: the supplement of paper PMC4604168 (melanoma cell lines)
# Some of the results follow. Single values are uncertain, as repeats are few or missing.
# Tested on: COLO800
# Experiment: cell count relative to DMSO control; melanoma cells; higher = more viable cells
# Settings: library dose: standard library concentration; 72 h
# 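Further: cells treated in 1,536-well plates, then fixed and DAPI-stained, with nuclei counted from automated high-throughput microscope images.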
row,Compound,cell count
1,"O=C(O)c1ccc(-c2c[nH]c3ncc(-c4ccccc4)cc23)cc1C1CCCC1 + COc1ccc(COc2ccc(Cc3cnc(N)nc3N)cc2OC)cc1 [GW2580] (first compound 0.8 µM, partner dose 5 µM)",97.4%
2,"O=c1[nH]nc(Sc2ncc([N+](=O)[O-])s2)n1-c1ccc2c(c1)OCCO2 + COc1cc(Nc2ncc(F)c(Nc3ccc4c(n3)NC(=O)C(C)(C)O4)n2)cc(OC)c1OC [Tamatinib] (first compound 1 µM, partner dose 2 µM)",28.3%
3,"COc1cc(Nc2ncc(F)c(Nc3ccc4c(n3)NC(=O)C(C)(C)O4)n2)cc(OC)c1OC [Tamatinib] + NC(=O)Nc1cc(-c2cccc(F)c2)sc1C(=O)N[C@H]1CCCNC1 [AZD7762] (first compound 2 µM, partner dose 0.1 µM)",53.5%
4,"O=c1[nH]nc(Sc2ncc([N+](=O)[O-])s2)n1-c1ccc2c(c1)OCCO2 + Cc1ccc(Nc2nccc(N(C)c3ccc4c(C)n(C)nc4c3)n2)cc1S(N)(=O)=O [Pazopanib] (first compound 1 µM, partner dose 2 µM)",81.3%
5,"CC1(C)NC(=O)N(c2ccc([N+](=O)[O-])c(C(F)(F)F)c2)C1=O [nilutamide] + Cc1ccc(NC(=O)c2cccc(N(C)C)c2)cc1NC(=O)c1ccc(O)cc1 [ZM336372] (first compound 5 µM, partner dose 10 µM)",123%
6,"Cn1cncc1[C@@](N)(c1ccc(Cl)cc1)c1ccc2c(c1)c(-c1cccc(Cl)c1)cc(=O)n2C [tipifarnib] + COC(=O)c1sccc1S(=O)(=O)Nc1ccc(Nc2ccccc2)cc1OC [GSK0660] (first compound 0.05 µM, partner dose 5 µM)",62.7%
7,"O=c1[nH]nc(Sc2ncc([N+](=O)[O-])s2)n1-c1ccc2c(c1)OCCO2 + C[C@]1(O)C[C@@H](c2nc(-c3ccc4ccc(-c5ccccc5)nc4c3)c3c(N)nccn32)C1 [OSI906] (first compound 1 µM, partner dose 2 µM)",42.9%
8,"COc1cc(Nc2ncc(F)c(Nc3ccc4c(n3)NC(=O)C(C)(C)O4)n2)cc(OC)c1OC [Tamatinib] + Cc1ccc(NC(=O)c2cccc(N(C)C)c2)cc1NC(=O)c1ccc(O)cc1 [ZM336372] (first compound 2 µM, partner dose 10 µM)",29.1%
9,"O=c1[nH]nc(Sc2ncc([N+](=O)[O-])s2)n1-c1ccc2c(c1)OCCO2 + C[C@]1(c2nc3c(C(N)=O)cccc3[nH]2)CCCN1 [Veliparib] (first compound 1 µM, partner dose 7 µM)",45.3%

# Tested on: COLO829
# Experiment: as above
# Settings: library dose: standard library concentration; 72 h
row,Compound,cell count
1,"O=c1[nH]nc(Sc2ncc([N+](=O)[O-])s2)n1-c1ccc2c(c1)OCCO2 + Cc1nc(Nc2ncc(C(=O)Nc3c(C)cccc3Cl)s2)cc(N2CCN(CCO)CC2)n1 [dasatanib] (first compound 1 µM, partner dose 0.02 µM)",39.9%
2,"O=C(O)c1ccc(-c2c[nH]c3ncc(-c4ccccc4)cc23)cc1C1CCCC1 + O=S(=O)(c1ccccc1)N(CC(F)(F)F)c1ccc(C(O)(C(F)(F)F)C(F)(F)F)cc1 [T0901317] (first compound 0.8 µM, partner dose 7 µM)",89.4%
3,"Cn1cncc1[C@@](N)(c1ccc(Cl)cc1)c1ccc2c(c1)c(-c1cccc(Cl)c1)cc(=O)n2C [tipifarnib] + CN(NC(=O)CC(=O)NN(C)C(=S)c1ccccc1)C(=S)c1ccccc1 [STA4783] (first compound 0.05 µM, partner dose 0.03 µM)",45%
4,"O=c1[nH]nc(Sc2ncc([N+](=O)[O-])s2)n1-c1ccc2c(c1)OCCO2 + COc1ccc(-c2ccc3c(N4CCOCC4)nc(N4C[C@@H](C)O[C@@H](C)C4)nc3n2)cc1CO [KU0063794] (first compound 1 µM, partner dose 0.1 µM)",86.1%
5,"Cn1cncc1[C@@](N)(c1ccc(Cl)cc1)c1ccc2c(c1)c(-c1cccc(Cl)c1)cc(=O)n2C [tipifarnib] + CN(C)S(=O)(=O)c1ccc2c(c1)/C(=C/c1cc3c([nH]1)CCCC3)C(=O)N2 [SU6656] (first compound 0.05 µM, partner dose 2 µM)",71.1%
6,"O=C(Nc1cccc(Cl)c1)Nc1ncc(CCNc2ncnc3ccsc23)s1 + O=C(O)c1ccc(-c2c[nH]c3ncc(-c4ccccc4)cc23)cc1C1CCCC1 [GSK650394] (first compound 0.004 µM, partner dose 0.8 µM)",74.6%
7,"O=c1[nH]nc(Sc2ncc([N+](=O)[O-])s2)n1-c1ccc2c(c1)OCCO2 + C#Cc1cccc(Nc2ncnc3cc(OCCOC)c(OCCOC)cc23)c1 [erlotinib] (first compound 1 µM, partner dose 4 µM)",73.8%
8,"O=c1[nH]nc(Sc2ncc([N+](=O)[O-])s2)n1-c1ccc2c(c1)OCCO2 + C[C@@H](N)c1ccc(C(=O)Nc2ccnc3[nH]ccc23)cc1 [RKI983] (first compound 1 µM, partner dose 2 µM)",104%
9,"COc1cc(Nc2ncc(F)c(Nc3ccc4c(n3)NC(=O)C(C)(C)O4)n2)cc(OC)c1OC [Tamatinib] + CC(C)(C)c1cnc(CSc2cnc(NC(=O)C3CCNCC3)s2)o1 [SNS-032] (first compound 2 µM, partner dose 0.05 µM)",86.7%
10,"O=c1[nH]nc(Sc2ncc([N+](=O)[O-])s2)n1-c1ccc2c(c1)OCCO2 + NCC(=O)Nc1ccc(-n2nc(C(F)(F)F)cc2-c2ccc3c(ccc4ccccc43)c2)cc1 [OSU03012] (first compound 1 µM, partner dose 5 µM)",85.1%
11,"O=c1[nH]nc(Sc2ncc([N+](=O)[O-])s2)n1-c1ccc2c(c1)OCCO2 + CN(NC(=O)CC(=O)NN(C)C(=S)c1ccccc1)C(=S)c1ccccc1 [STA4783] (first compound 1 µM, partner dose 0.03 µM)",46.4%
12,"C[C@@H]1CCN(C(=O)CC#N)C[C@@H]1N(C)c1ncnc2[nH]ccc12 + O=C(Nc1ccccc1)c1cc([N+](=O)[O-])ccc1Cl [GW9662] (first compound 5 µM, partner dose 10 µM)",55.6%
13,"O=c1[nH]nc(Sc2ncc([N+](=O)[O-])s2)n1-c1ccc2c(c1)OCCO2 + NC1(c2ccc(-c3nc4ccn5c(=O)[nH]nc5c4cc3-c3ccccc3)cc2)CCC1 [MK2206] (first compound 1 µM, partner dose 2 µM)",76.7%
14,"C[C@@H]1CCN(C(=O)CC#N)C[C@@H]1N(C)c1ncnc2[nH]ccc12 + O=C(O)c1ccc(-c2c[nH]c3ncc(-c4ccccc4)cc23)cc1C1CCCC1 [GSK650394] (first compound 5 µM, partner dose 0.8 µM)",86.1%
15,"CC1(C)NC(=O)N(c2ccc([N+](=O)[O-])c(C(F)(F)F)c2)C1=O [nilutamide] + O=C(O)c1ccc(-c2c[nH]c3ncc(-c4ccccc4)cc23)cc1C1CCCC1 [GSK650394] (first compound 5 µM, partner dose 0.8 µM)",78%
16,"O=c1[nH]nc(Sc2ncc([N+](=O)[O-])s2)n1-c1ccc2c(c1)OCCO2 + O=C(/C=C/c1cccnc1)NCCCCC1CCN(C(=O)c2ccccc2)CC1 [FK866] (first compound 1 µM, partner dose 0.05 µM)",60.7%
17,"O=c1[nH]nc(Sc2ncc([N+](=O)[O-])s2)n1-c1ccc2c(c1)OCCO2 + CC1(C)NC(=O)N(c2ccc([N+](=O)[O-])c(C(F)(F)F)c2)C1=O [nilutamide] (first compound 1 µM, partner dose 5 µM)",90.8%
18,"O=c1[nH]nc(Sc2ncc([N+](=O)[O-])s2)n1-c1ccc2c(c1)OCCO2 + C=CCn1c(=O)c2cnc(Nc3ccc(N4CCN(C)CC4)cc3)nc2n1-c1cccc(C(C)(C)O)n1 [MK1775] (first compound 1 µM, partner dose 0.1 µM)",95.2%
19,"O=c1[nH]nc(Sc2ncc([N+](=O)[O-])s2)n1-c1ccc2c(c1)OCCO2 + Cn1cncc1[C@@](N)(c1ccc(Cl)cc1)c1ccc2c(c1)c(-c1cccc(Cl)c1)cc(=O)n2C [tipifarnib] (first compound 1 µM, partner dose 0.05 µM)",89.3%
20,"CC1(C)NC(=O)N(c2ccc([N+](=O)[O-])c(C(F)(F)F)c2)C1=O [nilutamide] + C=CCn1c(=O)c2cnc(Nc3ccc(N4CCN(C)CC4)cc3)nc2n1-c1cccc(C(C)(C)O)n1 [MK1775] (first compound 5 µM, partner dose 0.1 µM)",78.5%
21,"COc1cc(Nc2ncc(F)c(Nc3ccc4c(n3)NC(=O)C(C)(C)O4)n2)cc(OC)c1OC [Tamatinib] + C=CCn1c(=O)c2cnc(Nc3ccc(N4CCN(C)CC4)cc3)nc2n1-c1cccc(C(C)(C)O)n1 [MK1775] (first compound 2 µM, partner dose 0.1 µM)",68.2%
22,"COc1cc(Nc2ncc(F)c(Nc3ccc4c(n3)NC(=O)C(C)(C)O4)n2)cc(OC)c1OC [Tamatinib] + O=C(Nc1cccc(Cl)c1)Nc1ncc(CCNc2ncnc3ccsc23)s1 [SNS314] (first compound 2 µM, partner dose 0.004 µM)",62%
23,"O=c1[nH]nc(Sc2ncc([N+](=O)[O-])s2)n1-c1ccc2c(c1)OCCO2 + COc1ccc(C2=N[C@@H](c3ccc(Cl)cc3)[C@@H](c3ccc(Cl)cc3)N2C(=O)N2CCNC(=O)C2)c(OC(C)C)c1 [Nutlin-3] (first compound 1 µM, partner dose 0.5 µM)",67.5%
